Measurements reported in a collection of fitness landscapes (doi:10.1016/j.celrep.2020.107928).
The full ranking holds about 81,000 sequences; the median of “one-hybrid fitness for binding parS DNA” is about -0.17, and the highest 2% start at about 0.51. This is one part of the list.

B1: Caulobacter ParB omega fusion; a variant is named by its letters at X, in order, B8GW30 (parent)
chain: MESVVVGEPGMSEGRRGLGRGLSALLGEVDAAPAQAPGEQLGGSREAPIEILQRNPDQPRRTFREEDLEDLSNSIREKGVLQPILVRPSPDTAGEYQIVAGERAWRAAQRAGLKTVPIMVRELDDLAVLEIGIIENVQRADLNVLEEALSYKVLMEKFERTQENIAQTIGKSXSHVANXMRLLXLPDEVQSYLVSGELTAXHARAIAAAADPVALAKQIIEGGLSVRETEALARKAPNLSAGKSKGGRPPRVKDTDTQALESDLSSVLGLDVSIDHRGSTGTLTITYATLEQLDDLCNRLTRGI

Variants of: B1
Assay: one-hybrid fitness for binding parS DNA (scaled: cognate 1, non-cognate 0); higher = stronger binding
Conditions: with parS DNA site
In short: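 On M9-minus-histidine containing 0.1 mM IPTG and 5 mM 3-AT, E. coli USO cells with a HIS3 reporter, site 19 bp from the promoter, grew 48 hours at 37°C to select Caulobacter ParB libraries randomised at four specificity codons. Plasmids from before and after were Illumina-sequenced, with three replicate libraries pooled and variants under 10 reads left out. Fitness is the log change in variant-to-wild-type read ratio, rescaled against cognate and non-cognate.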

one-hybrid fitness for binding parS DNA, 0.623:
RRLT

one-hybrid fitness for binding parS DNA, 0.253:
RAGW

one-hybrid fitness for binding parS DNA, 0.483:
RILY

one-hybrid fitness for binding parS DNA, 0.628:
RYIT

one-hybrid fitness for binding parS DNA, 0.266:
RVRF

one-hybrid fitness for binding parS DNA, ≤ 0.2:
SRWR
CLPE
MEYD
PGTN
VEHR
FTGC
ISST
CRPS
VHPS
FHAL
SKET
VWNR
HKSF
AFTS
HGHE
WYLS
EGSC
QVNK
ENNV
NLYG
CETD
TILE
QSQN
NSRY
PNSC
TVES
DDMT
NCSR
WTSV
DNHC
HVPG
MWKS
WWRG
DELW
CLGC
LRRE
CAYR
PMVV
IENI
SWTH
NPYA
YSIV
EQRE
RPHI
KMFC
EPAI
LLNH
GGSR
CPPN
YVIG
FQPG
GQLM
FAHW
RTPW
NPWT
WENG
LEMS
SMDR
YARG
HIYV
DSNH
GLLS
YSKS
SIHS
KRLY
NAFR
QLKG
TVKP
ADLK
IKSN
VENL
YRQT
EKSV
YRER
HALE
PFKR
CHHG
WQNY
GTAF
TLLS
QRPL
AINC
SRPG
WYFG
HIFI
YLRM
VEPG
CKVR
VEVA
NIRS
PRIS
WLQS
NRPF
LRTY
SRQI
PHCV
NRPT
SCRL
GHHM
KNDR
VNHS
SLSL
TLNV
LRIT
DSHG
LNGV
AEQC
QNRY
EITR
AKLS
KRFG
TVPD
PCPA
MMST
KRNY
RFMQ
TFNL
GEVT
TKQA
GWYA
MATT
LAPG
FGLR
PYWS
WIDC
QQDY
LHVS
ATVH
LQHC
QQHM
RFPL
QKDW
WAWT
PRET
QCKT
LPCG
PNRV
VHGR
GSKV
TCQT
AQKD
QWTC
TDET
NCDR
AGLK
KFVG

one-hybrid fitness for binding parS DNA, 0.391:
RHHN

one-hybrid fitness for binding parS DNA, 0.533:
RHLA
